Results reported in PubChem BioAssay AID720569 (National Center for Advancing Translational Sciences (NCATS), 2013).
This list was built around the results that the source calls inconclusive (neither active nor inactive); the mix of calls is not that of the screen. A potency beside an inconclusive call is a rough fit, not a confirmed value. Active and inactive are the calls of the source. Calls come from the whole dose curve; as a rule, active = well fitted inhibition curve with a large enough effect; inconclusive = small, poorly fitted or top-dose-only effect; inactive = no such curve, though single readings can be large or run the other way.

test system: pyruvate kinase (Trypanosoma brucei); test: qHTS of Trypanosoma Brucei Inhibitors: Confirmatory Assay for Cherry-picked Compounds; settings: recombinant TbPYK, Kinase-Glo ATP luminescence; series mostly up to 76.9 µM; note: nearly all actives have a fitted effect of over 70% in size
Text: Members of the Trypanosomatidae family of parasitic protozoans cause a spectrum of diseases throughout the tropical and subtropical world. Sleeping sickness, caused by two subspecies of Trypanosoma brucei, is endemic to areas of sub-Saharan Africa, while Chagas' disease, a manifestation of Trypanosoma cruzi infection, is prevalent throughout Central and South America. In addition, many species of Leishmania are responsible for a range of cutaneous and visceral diseases, causing ulcers, destructive lesions and kalaazar, a lethal infection of the viscera. These diseases cause severe public health and economic burdens on populations that are often already caught in a tragic cycle of poverty, poor nutrition and disease. Collectively, parasites of the trypanosomatid family infect 30 million people worldwide (~500 million live in endemic areas), and account for ~130K deaths annually. Existing treatments have developed little in the past 50 years, and suffer from toxicity, poor efficacy and resistance; the goal of this project is to develop lead drugs that will be suitable for entry into pre-clinical trials. […] Glycolysis in axenically cultured T. cruzi, representing the intracellular pathogenic stage, is also essential for these parasites. {Engel, 1987} This project aims to discover and optimize selective inhibitors of the glycolytic enzyme pyruvate kinase (PYK) from Trypanosoma brucei, the parasite that causes sleeping sickness. […] Trypanosomatid PYKs show significant differences from their human counterparts including only 47-50% sequence identity and different allosteric and activation properties.{Callens, 1992} To this end, a qHTS was done against the MLSMR to discover inhibitors. NIH Molecular Libraries Probe Production Network [MLPCN] NIH Chemical Genomics Center [NCGC] Grant: MH095452 PI Name: Malcolm Walkinshaw, University of Edinburgh
Two uL of TbPYK/substrate buffer (columns 1-3, 5-48) are dispensed into Greiner white solid bottom 1536-well assay plates; column 4 receives only TEA buffer as 0x TbPYK controls. Compounds are then transferred via Kalypsys pin tool equipped with 1536-pin array (10 nL slotted pins, V&P Scientific, San Diego, CA). Following addition of compound, 2 uL of ADP (130 uM final concentration, all columns) is added to initiate the reaction. The plates are then incubated at room temperature for 45 minutes. Kinase-Glo Plus reagent is added (3 uL) and plates incubated for 10 minutes, before being transferred to a ViewLux high-throughput CCD imager (PerkinElmer) wherein single end-point measurements of luminescence are acquired using a clear filter. All reagents are diluted in an assay buffer consisting of 50 mM TEA (pH 7.2), 100 mM KCl, 10 mM MgCl2, 0.05% BSA and 0.01% Tween-20. All screening operations will be performed on a fully integrated robotic system (Kalypsys, San Diego, CA) containing one RX-130 and two RX-90 anthropomorphic robotic arms (Staeubli, Duncan, SC). Library plates will be screened starting from the lowest and proceeding to the highest concentration. Vehicle-only plates, with DMSO being pin-transferred to columns 5-48, will be inserted uniformly at the beginning and the end of each library in order to monitor and record any shifts in the background, which can be affected by reagent dispensers or loss in enzyme activity over time. Screening data will be corrected, normalized, and concentration-effect relationships will be derived by using publicly-available curve fitting algorithms developed in-house (http://ncgc.nih.gov/pub/openhts).
Potency is the fitted concentration of half-maximal effect; tags give direction and shape of the fitted curve.

For `CN1C(=O)C(=Cc2ccccc2Oc2ccc(Cl)c(F)c2)C(=O)N(C)C1=O`, which Potency is on record?
The Potency was inconclusive: 1.12 µM [inhibitor, partial curve, poor fit].

How did the Potency turn out when `COc1ccc(/C=C2\C(=O)NC(=S)N(C)C2=O)cc1C` was run?
The Potency was inconclusive: 1.41 µM [inhibitor, partial curve].

`COc1ccc(CN2C(=O)NC(=O)/C(=C/c3cc(OC)c(OC)c(OC)c3)C2=O)cc1` was tested. Which Potency did it give?
Its Potency is inconclusive: 20 µM [inhibitor, partial curve, poor fit].

Which Potency does the source give for `O=C1NC(=O)C(=Cc2ccc(-c3ccccc3[N+](=O)[O-])o2)C(=O)N1` here?
Its Potency is inconclusive: 35.5 µM [inhibitor, single point].

Which Potency does the source give for `O=C1NC(=O)N(c2cccc(Cl)c2)C(=O)/C1=C\c1ccc(Sc2nc3ccccc3[nH]2)o1` here?
The Potency was active: 15.8 µM.

Which Potency does the source give for `O=C1NC(=S)NC(=O)C1C/C=C/c1ccccc1` here?
The Potency was active: 8.91 µM.

For `CCOc1ccccc1N1C(=O)NC(=O)/C(=C/c2ccc3c4c(cccc24)CC3)C1=O`, which Potency is on record?
Its Potency is inconclusive: 28.2 µM [inhibitor, partial curve].

With `O=C(O)c1ccccc1-c1ccc(C=C2C(=O)N(c3ccccc3)C(=S)N(c3ccccc3)C2=O)o1` as the compound, how does the Potency read?
Its Potency is active: 31.6 µM.

`Cn1c(O)c(/C=C2\C=c3ccccc3=NC2=O)c(=O)n(C)c1=O` was tested. Which Potency did it give?
Its Potency is inconclusive: 10 µM [inhibitor, partial curve].

How did the Potency turn out when `CCOC(=O)c1c(/N=C/C2C(=O)NC(=S)NC2=O)sc2c1CCC2` was run?
Its Potency is inconclusive: 31.6 µM [inhibitor, partial curve].

For `COc1cc(C=C2C(=O)NC(=O)NC2=O)ccc1OCc1ccc([N+](=O)[O-])cc1`, which Potency is on record?
Its Potency is active: 12.6 µM.

For `O=C1NC(=O)C(=Cc2cccc(OCCOc3ccccc3)c2)C(=O)N1`, which Potency is on record?
Its Potency is inconclusive: 25.1 µM [inhibitor, partial curve].

Which Potency does the source give for `NC1CCc2cc(O)c(O)cc2C1` (stereo not given) here?
The Potency was “inactive”.

With `CCOP(=O)(C1=C(O)C(=O)C(C(C)(C)C)=CC1=O)c1ccccc1` (stereo not given) as the compound, how does the Potency read?
The Potency was inconclusive: 14.1 µM [inhibitor, partial curve].

With `CCOC(=O)c1c(C)n(Cc2ccc(F)cc2)c2ccc(O)cc12` as the compound, how does the Potency read?
The Potency was inconclusive: 12.6 µM [inhibitor, partial curve].

Which Potency does the source give for `CCN(CC)c1ccc(NC(=O)c2cccc(C)c2)cc1S(=O)(=O)Nc1ccccc1OC` here?
Its Potency is inconclusive: 20 µM [inhibitor, partial curve].

How did the Potency turn out when `CSc1ncc(/C=C2/C(=O)NC(=O)N(C)C2=O)cn1` was run?
Its Potency is inconclusive: 12.6 µM [inhibitor, partial curve, poor fit].

`O=C1NC(=O)N(c2ccc(Cl)cc2)C(=O)/C1=C/c1coc2ccc(O)cc2c1=O` was tested. Which Potency did it give?
Its Potency is inconclusive: 5.62 µM [inhibitor, partial curve, poor fit].

Which Potency does the source give for `COc1ccc(N2C(=O)/C(=C/c3ccc(C)o3)C(=O)NC2=S)cc1` here?
The Potency was active: 15.8 µM.

For `Cc1ccc(OCCOc2cccc(C=C3C(=O)NC(=O)NC3=O)c2)cc1`, which Potency is on record?
The Potency was inconclusive: 22.4 µM [inhibitor, partial curve, poor fit].

With `O=C(CCn1c(=O)oc2ccccc21)N1CCC2(CC1)OCCO2` as the compound, how does the Potency read?
The Potency was “inactive”.

How did the Potency turn out when `O=C1NC(=O)N(c2ccccc2)C(=O)/C1=C/c1ccoc1` was run?
Its Potency is inconclusive: 22.4 µM [inhibitor, partial curve].

How did the Potency turn out when `O=c1[nH]c(=S)n(Cc2ccco2)c(O)c1C=NCc1cccs1` was run?
Its Potency is inconclusive: 31.6 µM [inhibitor, single point].

`COc1cc(/C=C2/C(=O)NC(=O)N(c3ccc(C)cc3)C2=O)cc(OC)c1OC` was tested. Which Potency did it give?
The Potency was inconclusive: 17.8 µM [inhibitor, partial curve, poor fit].

For `Cc1ccc(N2C(=O)NC(=O)/C(=C/c3ccoc3)C2=O)cc1`, which Potency is on record?
Its Potency is inconclusive: 25.1 µM [inhibitor, partial curve].

How did the Potency turn out when `O=C1NC(=O)N(c2cccc(Br)c2)C(=O)/C1=C/c1ccsc1` was run?
Its Potency is inconclusive: 17.8 µM [inhibitor, partial curve].

How did the Potency turn out when `CCN1C(=O)/C(=C/c2ccc3c(c2)CCN3CCCCl)C(=O)NC1=S` was run?
The Potency was inconclusive: 0.224 µM [inhibitor, partial curve].

With `COc1ccc(N2C(=O)/C(=C/c3ccc(N(C)C)o3)C(=O)NC2=S)cc1` as the compound, how does the Potency read?
Its Potency is inconclusive: 25.1 µM [inhibitor, partial curve].

How did the Potency turn out when `Cc1cc(C=C2C(=O)N(C)C(=S)N(C)C2=O)c(C)n1-c1cccnc1` was run?
The Potency was inconclusive: 20 µM [inhibitor, partial curve].

With `O=C1NC(=O)C(=Cc2ccccc2[N+](=O)[O-])C(=O)N1` as the compound, how does the Potency read?
The Potency was active: 8.91 µM.

Which Potency does the source give for `COc1cc(/C=C2\C(=O)NC(=O)N(c3ccccc3)C2=O)c([N+](=O)[O-])cc1OC` here?
Its Potency is active: 15.8 µM.

With `COC1CC(C)C(OC)c2cc(O)cc(c2O)NC(=O)C(C)=CC=CC(C)C(OC(N)=O)C(C)=CC(C)C1OC` (stereo not given) as the compound, how does the Potency read?
Its Potency is inconclusive: 20 µM [inhibitor, partial curve, poor fit].

With `Cc1ccc(N2C(=O)NC(=O)/C(=C\c3ccoc3)C2=O)cc1` as the compound, how does the Potency read?
Its Potency is inconclusive: 35.5 µM [inhibitor, partial curve, poor fit].

Which Potency does the source give for `COc1cc(/C=C2\C(=O)NC(=O)N(c3ccccc3)C2=O)cc(OC)c1OC` here?
Its Potency is inconclusive: 20 µM [inhibitor, partial curve, poor fit].

Which Potency does the source give for `O=C1NC(=O)N(c2ccc(F)cc2)C(=O)/C1=C/c1ccsc1` here?
The Potency was inconclusive: 22.4 µM [inhibitor, partial curve, poor fit].

How did the Potency turn out when `Cc1cc(C)n2nc(SC(C)C(=O)N3CCC4(CC3)OCCO4)nc2n1` (stereo not given) was run?
The Potency was “inactive”.

For `COc1cccc(N2C(=O)NC(=O)/C(=C/c3ccc([N+](=O)[O-])s3)C2=O)c1`, which Potency is on record?
Its Potency is active: 12.6 µM.

`COc1ccccc1N1C(=O)NC(=O)/C(=C/c2ccc([N+](=O)[O-])s2)C1=O` was tested. Which Potency did it give?
The Potency was inconclusive: 2.51 µM [inhibitor, full curve].

For `O=C1NC(=O)N(c2ccc(F)cc2)C(=O)/C1=C/c1ccc(N2CCOCC2)cc1`, which Potency is on record?
Its Potency is inconclusive: 31.6 µM [inhibitor, partial curve, poor fit].

Which Potency does the source give for `COC(=O)COc1ccc(/C=C2\C(=O)NC(=S)N(c3ccc(C)cc3)C2=O)cc1OC` here?
Its Potency is inconclusive: 0.112 µM [inhibitor, full curve].
